In a collection of fitness landscapes (doi:10.1126/science.1257360):
This is one part of the list.

B1: PhoQ; a variant is named by its letters at X, in order, P23837 (parent)
chain: MKKLLRLFFPLSLRVRFLLATAAVVLVLSLAYGMVALIGYSVSFDKTTFRLLRGESNLFYTLAKWENNKLHVELPENIDKQSPTMTLIYDENGQLLWAQRDVPWLMKMIQPDWLKSNGFHEIEADVNDTSLLLSGDHSIQQQLQEVREDDDDAEMTHSVAVNVYPATSRMPKLTIVVVDTIPVELKSSYMVWSWFIYVLSANLLLVIPLLWVAAWWSLRPIEALAKEVRELEEHNRELLNPATTRELTSLVRNLNRLLKSERERYDKYRTTLTDLTHSLKTPLXXLQXXLRSLRSEKMSVSDAEPVMLEQISRISQQIGYYLHRASMRGGTLLSRELHPVAPLLDNLTSALNKVYQRKGVNISLDISPEISFVGEQNDFVEVMGNVLDNACKYCLEFVEISARQTDEHLYIVVEDDGPGIPLSKREVIFDRGQRVDTLRPGQGVGLAVAREITEQYEGKIVAGESMLGGARMEVIFGRQHSAPKDE

Variants of: B1
Assay: enrichment ratio after two sorts for PhoP signalling (ratio (wild type AVST 3.29)); higher = more functional
Conditions: with PhoP (E. coli)

Variant | enrichment ratio
HADM | ≤ 0.25
RYTM | ≤ 0.25
EQQN | ≤ 0.25
FIIL | ≤ 0.25
PQLL | ≤ 0.25
TCHR | ≤ 0.25
HRKQ | ≤ 0.25
EICQ | ≤ 0.25
RADM | ≤ 0.25
DDNQ | ≤ 0.25
DQTP | ≤ 0.25
YSIR | ≤ 0.25
EAEH | ≤ 0.25
YDQK | ≤ 0.25
SPME | ≤ 0.25
INMA | ≤ 0.25
AFGY | ≤ 0.25
FAHI | ≤ 0.25
HRHR | ≤ 0.25
KDNM | ≤ 0.25
PLPC | ≤ 0.25
TLNT | 1.35
IEYS | ≤ 0.25
MQFK | ≤ 0.25
GQVM | 10.8

Variant | enrichment ratio
PDAP | ≤ 0.25
DLKC | ≤ 0.25
HFIL | ≤ 0.25
IRAG | ≤ 0.25
KLKF | ≤ 0.25
MAFA | ≤ 0.25
WSYD | ≤ 0.25
TGIP | ≤ 0.25
DVWF | ≤ 0.25
GDDF | ≤ 0.25
YKFN | ≤ 0.25
QQGF | ≤ 0.25
GCFN | ≤ 0.25
GKKA | ≤ 0.25
NLHL | ≤ 0.25
YWPR | ≤ 0.25
MHNM | ≤ 0.25
ATNA | ≤ 0.25
LQKS | ≤ 0.25
VHSW | ≤ 0.25
AWRF | ≤ 0.25
DILD | ≤ 0.25
NKDS | ≤ 0.25
KHHC | ≤ 0.25
QMYC | ≤ 0.25

Variant | enrichment ratio
AVYW | ≤ 0.25
QNLP | ≤ 0.25
LVIA | ≤ 0.25
MEIL | 5.36
DGGC | ≤ 0.25
WVMC | ≤ 0.25
RDDP | ≤ 0.25
SYYV | ≤ 0.25
LRIG | ≤ 0.25
SNAV | 12.6
YFED | ≤ 0.25
WGRT | ≤ 0.25
FWHA | ≤ 0.25
LHGK | ≤ 0.25
KKDQ | ≤ 0.25
NESS | ≤ 0.25
EATT | ≤ 0.25
ANCA | 44.6
YSKG | ≤ 0.25
GMTP | ≤ 0.25
KYWK | ≤ 0.25
VPRF | ≤ 0.25
TDHV | ≤ 0.25
DLII | ≤ 0.25
QICN | ≤ 0.25

Variant | enrichment ratio
YHWA | ≤ 0.25
VAWE | ≤ 0.25
KGEP | ≤ 0.25
DFFI | ≤ 0.25
ANFM | ≤ 0.25
YPDC | ≤ 0.25
ISPK | ≤ 0.25
FGKR | ≤ 0.25
PELA | ≤ 0.25
WACG | ≤ 0.25
IIIA | ≤ 0.25
HKRP | ≤ 0.25
GWDT | ≤ 0.25
WSGC | ≤ 0.25
DAVS | ≤ 0.25
LHER | ≤ 0.25
TMRQ | ≤ 0.25
EHIF | ≤ 0.25
FALA | 5.9
HISN | ≤ 0.25
APHY | ≤ 0.25
GKSH | ≤ 0.25
HWLG | ≤ 0.25
